These results are taken from PubChem BioAssay AID1346428 (National Center for Advancing Translational Sciences (NCATS), 2018).

Where “and” joins values, the source holds several entries; their conditions need not be identical. Identical values can stand only once. The campaign covered roughly 48,000 compounds. About 1,200 (2.5%) were called active. Roughly 2% stayed inconclusive and do not appear here.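 How the source made its calls: active means activation of at least 60% and not above a set upper limit (about 1 call in 100 departs from these limits); inconclusive means activation of 40% to 60%, or above that upper limit; inactive means activation under 40%.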 This is one part of the list.

The target of this assay is Probable G-protein coupled receptor 32 (Homo sapiens) (UniProt O75388). Briefly: qHTS for Agonists of Human Resolvin D1 Receptor DRV1. Further: 0% is about no effect. Particulars: CHO-K1 GPR32 beta-arrestin PathHunter luminescence, 90 min; at 76.9 µM; active compounds read high; zero percent set by DMSO-only wells. In outline: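 Readings come from a cell-based beta-arrestin complementation format: CHO-K1 GPR32 stable cells (2,500/well) treated 90 min with compounds, then beta-Gal substrate added for 1 h before chemiluminescence imaging.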
Turning to `O=c1[nH]cc(F)c(=O)[nH]1`, the activation was inactive: 7.35% and inactive: 9.43%.
As to `Cc1ccc(C)c(CN2C(=O)c3ccccc3S(=O)c3ccc(C(=O)N(C)Cc4ccccc4)cc32)c1` (centres undefined), the activation is inactive: -25.1%.
The figure for `CCOc1cc(NC(C)=O)ccc1C(=O)OC` is inactive: 1.06%.
Under `CCCCOc1ccc(CNC(=O)c2ccc(NC(=O)N3CCSc4ncccc43)cc2)cc1` stands inactive: 12.4%.
The figure for `Cc1ccc(-n2ncc(C(=O)N3CCC(c4ccccc4)C3)c2C2CCN(C(=O)OC(C)(C)C)CC2)cc1` (centres undefined) is inactive: -16.8%; for `O=S(=O)(Nc1cccc(-c2ccc(N3CCOCC3)nn2)c1)c1ccc(F)cc1F` it is inactive: 28.9%; for `O=C(Nc1nc(-c2ccc(Br)cc2)ns1)c1ccccc1F` it is active: 60.3%.
As for `CCCc1nn2c(C)c(-c3ccccc3)nc2s1`, the activation was inactive: -2.09%.
The figure for `Cc1cc(C)c2oc(C(=O)Nc3ccc(S(=O)(=O)N(C)c4ccccc4)cc3)cc(=O)c2c1` is inactive: -17.3%; for `O=c1c2c3c(sc2n(Cc2cc(=O)n4ccccc4n2)c(=O)n1-c1ccc(Cl)cc1)CCC3` it is inactive: -3.51%; for `COC(=O)CCN(C(=O)c1c(C)oc2ncnc(N3CCOCC3)c12)c1ccccc1` it is inactive: -17.8%.
The figure for `Cc1cccc(N2CCN(C(=O)C3CCN(S(=O)(=O)c4ccc5c(c4)oc(=O)n5C)CC3)CC2)c1C` is inactive: 8.14%.
Consider `COc1ccccc1C(=O)OCc1cc(=O)n2nc(-c3cccs3)sc2n1`, for which the activation was inactive: 25.3%.
Under `COc1ccc(OC)c(NC(=O)c2cnc(N3CCCCC3)c3ccccc23)c1` stands inactive: -23.7%; under `CCOC(=O)c1c(NC(=O)CCCOc2ccc(C(C)(C)C)cc2)sc2c1CCCC2`, inactive: 5.53%; under `CCCSc1ncc(Cl)c(C(=O)N(Cc2cccc(Cl)c2)C2CCS(=O)(=O)C2)n1` (centres undefined), inactive: -33.1%.
The figure for `CCOc1ccc(-c2cc(NC(=O)Nc3ccc(Cl)cc3)c(C(=O)OC)s2)cc1` is inactive: -0.757%; for `CCOC(=O)C1CCCN(S(=O)(=O)c2cc(Br)cc3c2N(C(C)=O)CC3)C1` (centres undefined) it is inactive: 3.13%; for `Cc1cccc(C(c2sc3nc(-c4ccco4)nn3c2O)N2CCN(c3ccccc3F)CC2)c1` (centres undefined) it is inactive: 0.392%.
The figure for `CCC(=O)N1CCc2cc(S(=O)(=O)NCCC(=O)NCc3ccc(C)cc3)ccc21` is inactive: 19.4%.
With `COC(=O)c1ccc(NS(=O)(=O)c2ccc3[nH]c4c(c3c2)CCCC4)cc1`, the activation is inactive: 31.5%.
Under `O=C(NCCc1ccc(Cl)cc1)c1ccc2c(c1)N(Cc1ccc(F)cc1)C(=O)CS2` stands inactive: -3.66%; under `O=C1COc2ccc(-c3cc(-c4ccccc4)c4c(n3)-c3ccccc3OC4)cc2N1`, inactive: 11.7%; under `Cc1nn(-c2ccccc2)c2sc(C(=O)Nc3ccc(Br)cc3)cc12`, inactive: 23%.
Regarding `CCc1ccc(NC(=O)[C@H](CSCc2ccccc2)N2Cc3ccccc3C2=O)cc1`, the activation is inactive: -19%.
Under `COc1ccc(-c2cc3c(=O)n(CC(=O)Nc4cc(F)ccc4F)ccn3n2)cc1OC` stands inactive: 8%; under `COc1cccc(CNC(=O)CCCn2ncn3c(cc4occc43)c2=O)c1`, inactive: -9.88%; under `CCCn1c(SCC(O)c2ccccc2)nc2ccccc21` (centres undefined), inactive: -7.31%.
Under `CN1CCN(CCCN2c3ccccc3Sc3ccc(S(=O)(=O)N(C)C)cc32)CC1` stands inactive: 36.4%.
The figure for `CN(C)c1ccc(-c2nc(-c3cccs3)c(-c3cccs3)[nH]2)cc1` is inactive: -9.24%; for `Cc1ccc(C(=O)NCC(c2ccco2)S(=O)(=O)c2cccs2)cc1C` (centres undefined) it is inactive: -1.68%.
With `COc1cc2nc(Nc3cccc(C)c3)nc(N)c2cc1OC`, the activation is inactive: 10%.
Under `Cc1ccc(-c2noc(-c3ccccc3NC(=O)C3CC(=O)N(c4ccc(C)cc4)C3)n2)cc1` (centres undefined) stands inactive: 8.29%.
Under `O=c1[nH]c(=O)n([C@H]2CCCO2)cc1F` stands inactive: -9.28%.
Under `COc1ccc(NC(=O)CCS(=O)(=O)c2ccc3c(c2)oc(=O)n3C)cc1OC` stands inactive: -5.37%.
As to `O=C(Oc1ccc(F)cc1)c1nc(SCc2ccc(F)cc2)ncc1Cl`, the activation was inactive: 0.504%.
As to `CC1=C(C(=O)NCc2ccccc2C)C2(CCCCCC2)OC1=O`, the activation is inactive: -14%.
The figure for `COC(=O)c1sc(-c2ccccc2)cc1NC(=O)Nc1ccc(Cl)cc1` is inactive: -8.02%.
Take `CCCCN(Cc1cc2ccccc2[nH]c1=O)C(=O)c1cccc(Cl)c1`: the activation was inactive: -1.1%.
The figure for `COc1ccc2c(c1)CCc1sc(NC(=O)c3ccc(Br)cc3)nc1-2` is inactive: -23.3%; for `CC(C)(C)c1ccc(Oc2nc3ccccn3c(=O)c2/C=C(\C#N)c2nc3ccccc3s2)cc1` it is inactive: 47%.
With `CCc1ccc(NC(=O)CC2C(=O)N(c3ccc(C)cc3)C(=O)N2C2CCCC2)cc1` (centres undefined), the activation is inactive: -3.37%.
Under `Cc1cc(C)cc(NC(=O)CSc2nc(=O)[nH]c3c2CCC3)c1` stands inactive: -9.68%; under `COc1cc(NC(=O)Cn2ccn(-c3cc(C)cc(C)c3)c(=O)c2=O)cc(OC)c1`, inactive: -0.641%; under `CC(C)CN(CCNC(=O)c1cn(C)c2ccc(S(=O)(=O)N3CCCCCC3)cc2c1=O)CC(C)C`, inactive: -28.4%.
Turning to `CN(C)c1oc(-c2ccc(COc3ccccc3)o2)nc1C#N`, the activation is inactive: 0.546%.
Under `COc1ccc(N2CCN(S(=O)(=O)CCNC(=O)c3cc(=O)c4ccccc4o3)CC2)cc1` stands inactive: -14.2%; under `Cc1ccc(NC(=O)C(=O)NCC(c2ccc3c(c2)OCO3)N2CCN(C)CC2)c(C)c1` (centres undefined), inactive: 8.89%; under `Cc1cc(C)cc(NC(=O)CSc2nc3ncccc3[nH]2)c1`, inactive: 9.05%.
The figure for `Cc1ccc(NC(=O)C(Cc2ccccc2)NS(=O)(=O)c2ccc3c(c2)CCC(=O)N3)cc1` (centres undefined) is inactive: -3.49%.
Under `CS(=O)(=O)c1cccc(-c2nnc(NC(=O)c3ccc4c(c3)OCCO4)o2)c1` stands inactive: 6.63%; under `CCOC(=O)N1CCC(NC(=O)c2cnn(-c3ccc(C)cc3C)c2C2CCN(C(=O)OC(C)(C)C)CC2)CC1`, inactive: -7.23%; under `CC(=O)Nc1cccc(Nc2nc3ccccc3n3c(C)nnc23)c1`, inactive: -9.48%.
Take `O=C(CN1CCCN(Cc2ccc(F)cc2)S1(=O)=O)Nc1ccc2c(c1)OCCO2`: the activation was inactive: -5.11%.
The figure for `CCOc1ccccc1N(C)C(=O)Cn1nc(Cc2ccncc2)c2ccccc2c1=O` is inactive: -9.3%; for `CC(=O)c1nn(-c2ccc(OC(F)(F)F)cc2)nc1Nc1ccccc1` it is inactive: -0.944%.
The figure for `CCc1nn(CCCC(=O)NCc2ccc(C)cc2)c(=O)c2cc3occc3n12` is inactive: 11%.
The figure for `CCCN(CCC)CCCNC(=O)Cn1ncc2c3ccccc3n(Cc3ccccc3F)c2c1=O` is inactive: -1.14%.
With `COC(=O)c1sccc1S(=O)(=O)N1CCN(c2ccc(C)cc2C)CC1`, the activation was inactive: 2.93%.
Take `CCOc1ccc(CNC(=O)C2CCN(C(=O)N3CC(CC)Oc4ccccc43)CC2)cc1` (centres undefined): the activation is inactive: -15.2%.
The figure for `Cc1c(Cl)cccc1NC(=O)N1CCOc2ccccc21` is inactive: -30.1%; for `CC(C)(C)c1ccc(C(=O)NC2(C(F)(F)F)NC(=O)N(CCc3ccccc3)C2=O)cc1` (centres undefined) it is inactive: 48.1%; for `COc1cccc(NC(=O)CSc2ncc3c(n2)-c2ccc(Cl)cc2N(C)S3(=O)=O)c1` it is inactive: 4.11%.
Under `CCCNC(=O)c1ccccc1NC(=O)c1nsc2ccccc12` stands inactive: -0.473%; under `Cc1ccc(OCC(=O)Nc2ccc3nc(SCC(=O)Nc4ccc(C)cc4C)sc3c2)cc1`, inactive: -9.73%.
As to `Cc1ccc(NC(=O)NCCOCCn2c(=O)oc3ccccc32)cc1C`, the activation was inactive: 4.99%.
The figure for `CCOc1ccc(CNC(=O)c2ccccc2NC(=O)c2nsc3ccccc23)cc1` is inactive: -10.6%; for `CCOc1ccccc1NC(=O)C(=O)NCCc1sc2nc(-c3ccc(OC)cc3)nn2c1C` it is inactive: -18%.
`Cc1ccc(Cn2c(=O)n(-c3ccc(C)cc3)c(=O)c3c2c2cc(C)ccc2n3C)cc1`: the activation was inactive: -5.7%.
The figure for `CCOc1ccccc1NS(=O)(=O)c1ccc2[nH]c3c(c2c1)CCCCC3` is inactive: 12.4%; for `COc1ccc(S(=O)(=O)N(CC(=O)Nc2cc(C)ccc2OC)Cc2ccccc2)cc1` it is inactive: -4.78%.
The figure for `COC(=O)c1ccc(NC(=O)CN2CCN(S(=O)(=O)c3ccc(Br)cc3)CC2)cc1` is inactive: -16.4%; for `Cc1c(-c2ccc(Cl)cc2)c(=O)oc2c(CN3CCN(CCO)CC3)c(O)ccc12` it is inactive: -15.4%; for `CCOc1ccc(CCNC(=O)c2cc3c(=O)n(C)c4ccccc4c3n2C)cc1OCC` it is inactive: -4.27%.
The figure for `C[C@@H]1CC(=O)NN=C1c1ccc(NN=C(C#N)C#N)cc1` is inactive: -90.4% and inactive: -99.6%; for `CCCN(CCC)CCCNC(=O)C1CCN(c2nc3ccc(CC)cc3s2)CC1` it is inactive: -8.03%; for `O=C(CSc1cn(CC(=O)N2CCCCC2)c2ccccc12)NCc1ccc(F)cc1` it is inactive: -14.7%.
Turning to `CSc1cccc(NC(=O)C2CCCN(C(=O)c3cnn(-c4ccc(F)cc4)c3-n3cccc3)C2)c1` (centres undefined), the activation is inactive: -9.71%.
The figure for `N#C/C(=C\c1cccc(F)c1)c1nc(-c2cc3c(ccc4ccccc43)oc2=O)cs1` is inactive: 13.6%; for `CCOc1cc(C2c3c(oc4cc(C)cc(C)c4c3=O)C(=O)N2CCO)ccc1O` (centres undefined) it is inactive: -12.5%; for `Cc1ccc(NC(=O)Nc2ccc3nc(N4CCN(C)CC4)cc(C)c3c2)cc1F` it is active: 93.6%.
Under `Cc1ccc(-c2nc(SCC(=O)NCC3CCCO3)c3c(=O)n(C)c(=O)n(C)c3n2)cc1` (centres undefined) stands inactive: 7.8%; under `Cc1cc(OCCn2c(CCNC(=O)C3CCCCC3)nc3ccccc32)ccc1Cl`, inactive: -17.5%.
The figure for `Cc1ccccc1N1CCN(S(=O)(=O)c2ccccc2)CC1` is inactive: -8.58%.
